Source: a compilation of properties of binary mixtures (doi:10.1016/j.molliq.2012.09.002)
Some of these densities may be calculated back from excess volumes.

Assay: xn = mol fraction of the nth substance listed
Conditions: 101 kPa

CCCCCC[n+]1ccn(C)c1.F[B-](F)(F)F + CN(CCO)CCO
mass density [kg/m3]
Conditions | x2 = 0 | x2 = 0.097 | x2 = 0.192 | x2 = 0.2909 | x2 = 0.3916 | x2 = 0.4949 | x2 = 0.5936 | x2 = 0.6935 | x2 = 0.7928 | x2 = 0.8824
303.15 K | 1140.8 | 1133.5 | 1126.6 | 1118.9 | – | – | 1092.2 | 1081.1 | – | 1054.9
308.15 K | 1137.4 | 1129.9 | 1122.9 | 1115.3 | 1107.2 | 1098.2 | 1088.4 | 1077.3 | 1064.5 | 1051.2
313.15 K | 1134 | 1126.4 | 1119.3 | 1111.6 | 1103.5 | 1094.4 | – | 1073.4 | 1060.7 | –
318.15 K | 1130.5 | 1122.9 | 1115.7 | 1107.9 | 1099.8 | – | 1080.8 | 1069.5 | 1056.7 | 1043.5
323.15 K | 1127.1 | 1119.3 | 1111.9 | 1104.1 | 1096 | 1086.8 | 1076.8 | 1065.5 | 1052.6 | 1039.4

CN(CCO)CCO + CCCCCC[n+]1ccn(C)c1.F[B-](F)(F)F
x1 = 1
Conditions | mass density [kg/m3]
318.15 K | 1022.8
323.15 K | 1019
